Literature values in PubChem BioAssay AID1259410 (Chemical Carcinogenesis Research Information System (CCRIS), 2018).
This continues a long series; more values of the same kind are listed elsewhere.

Test system: rodent tumor promotion studies, tumor incidence
Experiment: CCRIS tumor promotion studies
Settings: Doses [Promoter]: 0, Doses [Promoter]: 0, Route [Carcinogen]: DERMAL, Route [Promoter]: DERMAL, Species: MOUSE, Strain/Sex: CD-1/FEMALE
Excerpt: The CCRIS database contains chemical records with carcinogenicity, mutagenicity, tumor promotion, and tumor inhibition test results. It was developed by the National Cancer Institute (NCI). Data are derived from studies cited in primary journals, current awareness tools, NCI reports, and other sources. Test results have been reviewed by experts in carcinogenesis and mutagenesis.
CCRIS provides historical information from the years 1985 - 2011. It is no longer updated.
This is an archive assay for CCRIS tumor promotion studies.

Measured: outcome

CCCCCCCCCCCCCC(=O)O[C@@H]1[C@@H](C)[C@@]2(O)[C@@H](C=C(CO)C[C@]3(O)C(=O)C(C)=C[C@@H]23)[C@@H]2C(C)(C)[C@]12OC(C)=O
skin: papilloma, carcinoma: Carcinogen: 2'-(4-NITROPHENOXY)OXIRANE, 59485-08-4, Carcinogen: 2'-(4-NITROPHENOXY)OXIRANE, 59485-08-4, Doses [Carcinogen]: 1, 2 UMOL IN 0.2 ML 15% DMSO IN ACETONE 1/WK FOR 5 WK, Doses [Carcinogen]: 1, 2 UMOL IN 0.2 ML 15% DMSO IN ACETONE 1/WK FOR 5 WK, 15 NMOL IN 0.1 ML ACETONE ONCE 18-24 HR PRIOR TO EACH CARCINOGEN DOSE THEN 2/WK FOR DURATION OF STUDY (STUDY DURATION, 15 NMOL IN 0.1 ML ACETONE ONCE 18-24 HR PRIOR TO EACH CARCINOGEN DOSE THEN 2/WK FOR DURATION OF STUDY (STUDY DURATION | Carcinogen: 4-NITROPHENYL VINYL ETHER, 940-14-7, Carcinogen: 4-NITROPHENYL VINYL ETHER, 940-14-7, Doses [Carcinogen]: 1, 2 UMOL IN 0.2 ML 15% DMSO IN ACETONE 1/WK FOR 5 WK, Doses [Carcinogen]: 1, 2 UMOL IN 0.2 ML 15% DMSO IN ACETONE 1/WK FOR 5 WK, 15 NMOL IN 0.1 ML ACETONE ONCE 18-24 HR PRIOR TO EACH CARCINOGEN DOSE THEN 2/WK FOR DURATION OF STUDY (STUDY DURATION, 15 NMOL IN 0.1 ML ACETONE ONCE 18-24 HR PRIOR TO EACH CARCINOGEN DOSE THEN 2/WK FOR DURATION OF STUDY (STUDY DURATION
skin: papilloma: Carcinogen: 2'-(NITROPHENOXY)OXIRANE, 59485-08-4, Carcinogen: 2'-(NITROPHENOXY)OXIRANE, 59485-08-4, Doses [Carcinogen]: 2 UMOL IN 0.2 ML 15% DMSO IN ACETONE ONCE, 15 NMOL IN 0.1 ML ACETONE ONCE 18-24 HR PRIOR TO CARCINOGEN DOSE THEN 2/WK FOR DURATION OF STUDY (STUDY DURATION: 30, 15 NMOL IN 0.1 ML ACETONE ONCE 18-24 HR PRIOR TO CARCINOGEN DOSE THEN 2/WK FOR DURATION OF STUDY (STUDY DURATION: 30 | Carcinogen: 3,4-DIHYDRO-DIBENZ[C,H]ACRIDINE, 76186-82-8, Carcinogen: 3,4-DIHYDRO-DIBENZ[C,H]ACRIDINE, 76186-82-8, Doses [Carcinogen]: 0, 50, 200 NMOL IN 0.2 ML ACETONE ONCE (STUDY DURATION: 150 D), Doses [Carcinogen]: 0, 50, 200 NMOL IN 0.2 ML ACETONE ONCE (STUDY DURATION: 150 D), 16 NMOL IN 0.2 ML ACETONE 2/WK FOR 20 WK BEGINNING 10 D POST CARCINOGEN DOSE (STUDY DURATION: 150 D), 16 NMOL IN 0.2 ML ACETONE 2/WK FOR 20 WK BEGINNING 10 D POST CARCINOGEN DOSE (STUDY DURATION: 150 D) | Carcinogen: 4-NITROPHENYL VINYL ETHER, 940-14-7, Carcinogen: 4-NITROPHENYL VINYL ETHER, 940-14-7, Doses [Carcinogen]: 2 UMOL IN 0.2 ML 15% DMSO IN ACETONE ONCE, 15 NMOL IN 0.1 ML ACETONE ONCE 18-24 HR PRIOR TO CARCINOGEN DOSE THEN 2/WK FOR DURATION OF STUDY (STUDY DURATION: 30, 15 NMOL IN 0.1 ML ACETONE ONCE 18-24 HR PRIOR TO CARCINOGEN DOSE THEN 2/WK FOR DURATION OF STUDY (STUDY DURATION: 30 | Carcinogen: (1AR,2R,3S,13CS)-1A,2,3,13C-TETRAHYDROBENZ[C]OXIRENO[5,6]BENZ[1,2-H]ACRIDINE-2,3 -DIOL, 93780-96-2, Carcinogen: (1AR,2R,3S,13CS)-1A,2,3,13C-TETRAHYDROBENZ[C]OXIRENO[5,6]BENZ[1,2-H]ACRIDINE-2,3 -DIOL, 93780-96-2, Doses [Carcinogen]: 0, 50, 200 NMOL IN 0.2 ML ACETONE ONCE (STUDY DURATION: 150 D), Doses [Carcinogen]: 0, 50, 200 NMOL IN 0.2 ML ACETONE ONCE (STUDY DURATION: 150 D), 16 NMOL IN 0.2 ML ACETONE 2/WK FOR 20 WK BEGINNING 10 D POST CARCINOGEN DOSE (STUDY DURATION: 150 D), 16 NMOL IN 0.2 ML ACETONE 2/WK FOR 20 WK BEGINNING 10 D POST CARCINOGEN DOSE (STUDY DURATION: 150 D) | Carcinogen: (1AR,2S,3R,13C)-1A,2,3,13C-TETRAHYDROBENZ[C]OXIRENO[5,6]BENZ[1,2-H]ACRIDINE-2,3- DIOL, 93780-98-4, Carcinogen: (1AR,2S,3R,13C)-1A,2,3,13C-TETRAHYDROBENZ[C]OXIRENO[5,6]BENZ[1,2-H]ACRIDINE-2,3- DIOL, 93780-98-4, Doses [Carcinogen]: 0, 50, 200 NMOL IN 0.2 ML ACETONE ONCE (STUDY DURATION: 150 D), Doses [Carcinogen]: 0, 50, 200 NMOL IN 0.2 ML ACETONE ONCE (STUDY DURATION: 150 D), 16 NMOL IN 0.2 ML ACETONE 2/WK FOR 20 WK BEGINNING 10 D POST CARCINOGEN DOSE (STUDY DURATION: 150 D), 16 NMOL IN 0.2 ML ACETONE 2/WK FOR 20 WK BEGINNING 10 D POST CARCINOGEN DOSE (STUDY DURATION: 150 D) | Carcinogen: (1AR,13CS)-1A,2,3,13C-TETRAHYDROBENZ[C]OXIRENO[5,6]BENZ[1,2-H]ACRIDINE, 93781-04-5, Carcinogen: (1AR,13CS)-1A,2,3,13C-TETRAHYDROBENZ[C]OXIRENO[5,6]BENZ[1,2-H]ACRIDINE, 93781-04-5, Doses [Carcinogen]: 0, 50, 200 NMOL IN 0.2 ML ACETONE ONCE (STUDY DURATION: 150 D), Doses [Carcinogen]: 0, 50, 200 NMOL IN 0.2 ML ACETONE ONCE (STUDY DURATION: 150 D), 16 NMOL IN 0.2 ML ACETONE 2/WK FOR 20 WK BEGINNING 10 D POST CARCINOGEN DOSE (STUDY DURATION: 150 D), 16 NMOL IN 0.2 ML ACETONE 2/WK FOR 20 WK BEGINNING 10 D POST CARCINOGEN DOSE (STUDY DURATION: 150 D) | Carcinogen: (1AS,2R,3S,13CR)-1A,2,3,13C-TETRAHYDROBENZ[C]OXIRENO[5,6]BENZ[1,2-H]ACRIDINE-2,3 -DIOL, 93781-00-1, Carcinogen: (1AS,2R,3S,13CR)-1A,2,3,13C-TETRAHYDROBENZ[C]OXIRENO[5,6]BENZ[1,2-H]ACRIDINE-2,3 -DIOL, 93781-00-1, Doses [Carcinogen]: 0, 50, 200 NMOL IN 0.2 ML ACETONE ONCE (STUDY DURATION: 150 D), Doses [Carcinogen]: 0, 50, 200 NMOL IN 0.2 ML ACETONE ONCE (STUDY DURATION: 150 D), 16 NMOL IN 0.2 ML ACETONE 2/WK FOR 20 WK BEGINNING 10 D POST CARCINOGEN DOSE (STUDY DURATION: 150 D), 16 NMOL IN 0.2 ML ACETONE 2/WK FOR 20 WK BEGINNING 10 D POST CARCINOGEN DOSE (STUDY DURATION: 150 D)
